Publication PMC4336329 (PLoS ONE, 2015)
Among all 310,000 compounds or so, about 2,200 (0.71%) showed an effect of 50% or more. The effect is printed as a negative number. The list shows a part of the results.

molecular target: human ether-à-go-go-related gene (hERG) potassium channel (human, UniProt Q12809); assay: primary screen, population patch clamp on CHO cells stably expressing hERG
Sequence (Q12809 whole entry, looked up): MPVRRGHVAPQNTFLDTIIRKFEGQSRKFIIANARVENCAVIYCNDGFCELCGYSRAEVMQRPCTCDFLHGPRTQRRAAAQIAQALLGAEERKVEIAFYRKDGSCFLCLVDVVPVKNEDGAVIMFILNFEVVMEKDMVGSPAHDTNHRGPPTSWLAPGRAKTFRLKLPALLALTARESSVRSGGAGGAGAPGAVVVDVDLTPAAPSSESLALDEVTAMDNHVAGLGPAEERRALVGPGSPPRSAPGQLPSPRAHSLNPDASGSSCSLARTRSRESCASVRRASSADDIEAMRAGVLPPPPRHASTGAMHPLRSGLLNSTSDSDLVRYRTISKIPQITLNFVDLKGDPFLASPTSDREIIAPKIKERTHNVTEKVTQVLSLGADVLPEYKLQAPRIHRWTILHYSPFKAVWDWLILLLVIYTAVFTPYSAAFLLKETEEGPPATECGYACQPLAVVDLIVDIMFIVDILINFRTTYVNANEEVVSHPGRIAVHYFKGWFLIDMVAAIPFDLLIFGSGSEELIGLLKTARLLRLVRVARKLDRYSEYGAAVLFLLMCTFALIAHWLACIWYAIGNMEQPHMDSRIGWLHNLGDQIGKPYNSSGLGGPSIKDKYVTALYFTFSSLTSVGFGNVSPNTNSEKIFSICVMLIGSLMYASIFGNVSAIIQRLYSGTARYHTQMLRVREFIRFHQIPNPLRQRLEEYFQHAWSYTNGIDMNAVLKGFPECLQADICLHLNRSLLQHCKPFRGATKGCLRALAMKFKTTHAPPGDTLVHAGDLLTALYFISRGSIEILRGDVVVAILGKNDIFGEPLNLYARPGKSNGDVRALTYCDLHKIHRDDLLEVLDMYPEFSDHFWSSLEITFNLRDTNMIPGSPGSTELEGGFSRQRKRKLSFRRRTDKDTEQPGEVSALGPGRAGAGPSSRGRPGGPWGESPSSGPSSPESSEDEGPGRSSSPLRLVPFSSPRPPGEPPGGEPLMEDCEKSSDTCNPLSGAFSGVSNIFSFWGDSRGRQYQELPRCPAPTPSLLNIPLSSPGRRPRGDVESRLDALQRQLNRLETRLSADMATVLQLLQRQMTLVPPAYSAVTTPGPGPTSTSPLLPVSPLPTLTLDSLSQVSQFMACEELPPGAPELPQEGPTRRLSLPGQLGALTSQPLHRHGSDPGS

Row | Structure (SMILES) | hERG current change (%, negative = inhibition) at 1uM
1 | CCCC(=O)NC(c1ccc(OC)c(OC)c1)c1cc(Cl)c2cccnc2c1O (stereo not shown) | 11.2%
2 | Cc1cc(/C=C2/NC(=O)N(c3ccccc3)C2=O)c(C)n1C(C)C | 21.3%
3 | COc1ccccc1-c1nnc(SCc2ccccn2)n1C | -2.55%
4 | CCOC(=O)N1CCN(C(=O)Cc2ccccc2OC)CC1 | 18.2%
5 | CC(C)OC(=O)/C(=C/c1ccc(Br)cc1)NC(=O)c1ccco1 | -1.31%
6 | CN(C)c1ccc(/C=N/N(CCC#N)C2=NS(=O)(=O)c3ccccc32)cc1 | 12.3%
7 | O=c1c2ccccc2c(/C=N/n2cnnc2)c(O)n1-c1ccccc1 | 1.77%
8 | CC1CCC2(CC1)NC(=O)N(Cc1nnc(-c3cccs3)o1)C2=O (stereo not shown) | 5.1%
9 | O=C(Nc1cccnc1)c1cnc2ccccc2n1 | 13.9%
10 | CCNC(=O)NC1c2ccccc2CSc2ccccc21.O (stereo not shown) | 14.8%
11 | CCCNC(=O)c1onc(CSc2ccc(Cl)cc2)c1C(=O)NCCC(C)C | 11.5%
12 | Cc1ccc(Oc2ncccc2COC(=O)Nc2ccccc2C)cc1 | 15.8%
13 | CC(C)(C)NCc1cc(Br)ccc1OCc1cccs1.Cl | -10.1%
14 | C=CCn1c(SCC(=O)NCC(=O)OCC)nnc1-c1cccc(OC)c1 | 7.05%
15 | Cc1nn2c(-c3cccc(NC(=O)CN4CCOCC4)c3)nnc2c2ccccc12 | 6.26%
16 | CC(=O)c1ccc(NC(=O)C(Cc2ccccc2)n2cccc2)cc1 (stereo not shown) | 5.8%
17 | O=C1NC(=Nc2ccc(Cl)cc2)SC1Cc1cccc(Cl)c1Cl (stereo not shown) | 0.88%
18 | O=c1nc2n(c3c4c(sc13)CCC4)CCC2 | 13%
19 | COC(=O)C1=C(c2ccc(F)cc2OCc2ccccc2)C[C@@H]2CC[C@H]1N2C(=O)NCc1ccccc1Cl | 10.7%
20 | C/C(=N/OCC(=O)Nc1ccc(C)cc1C)c1cccs1 | -2.05%
21 | O=C(CCC(=O)Nc1ccc(F)cc1)N/N=C/c1ccccc1 | 10.6%
22 | CC(Sc1ccccn1)C(=O)Nc1ccccc1 (stereo not shown) | 4.61%
23 | CCOC(=O)C(O)(c1ccc(NC(=O)NC)cc1)C(F)(F)F (stereo not shown) | 10.1%
24 | COc1ccc(C(F)(F)F)cc1N/C=C/c1nnnn1-c1ccc2ccccc2c1 | 6.79%
25 | CCCCC(NS(=O)(=O)c1ccc(OC)cc1)C(=O)O (stereo not shown) | 4.31%
